Source: paper PMC7041945, “Misfolded proteins bind and activate death receptor 5 to trigger apoptosis during unresolved endoplasmic reticulum stress” (eLife, 2020)
No constants are given. Whether binding was seen depends on the method and setting. Binding seen in cells or lysates may run through a third protein. Some binding calls cover weakened binding; strength is not graded here. For part of these data: Where a sequence is shown, tags or fusion partners need not be part of it.

Protein sequences, listed by entry. Tags and fused reporters are not part of them. Residues count along the entry.
UniProt O14763, residues 56-440: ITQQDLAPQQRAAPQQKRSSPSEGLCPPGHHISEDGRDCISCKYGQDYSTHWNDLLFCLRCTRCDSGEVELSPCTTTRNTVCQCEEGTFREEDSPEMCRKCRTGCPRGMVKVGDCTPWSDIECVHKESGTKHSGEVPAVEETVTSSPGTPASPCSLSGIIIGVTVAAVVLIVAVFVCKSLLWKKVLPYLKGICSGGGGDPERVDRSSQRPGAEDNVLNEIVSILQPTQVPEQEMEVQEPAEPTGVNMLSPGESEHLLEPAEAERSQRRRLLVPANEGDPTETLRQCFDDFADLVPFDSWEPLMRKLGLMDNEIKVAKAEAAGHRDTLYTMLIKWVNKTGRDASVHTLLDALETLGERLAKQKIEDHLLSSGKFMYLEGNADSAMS
UniProt Q13158: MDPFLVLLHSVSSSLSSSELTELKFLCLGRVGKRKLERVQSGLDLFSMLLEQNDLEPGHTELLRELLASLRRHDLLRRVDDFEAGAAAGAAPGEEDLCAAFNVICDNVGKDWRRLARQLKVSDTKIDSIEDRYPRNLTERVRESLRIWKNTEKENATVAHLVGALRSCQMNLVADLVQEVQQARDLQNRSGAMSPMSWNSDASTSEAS
UniProt Q14790: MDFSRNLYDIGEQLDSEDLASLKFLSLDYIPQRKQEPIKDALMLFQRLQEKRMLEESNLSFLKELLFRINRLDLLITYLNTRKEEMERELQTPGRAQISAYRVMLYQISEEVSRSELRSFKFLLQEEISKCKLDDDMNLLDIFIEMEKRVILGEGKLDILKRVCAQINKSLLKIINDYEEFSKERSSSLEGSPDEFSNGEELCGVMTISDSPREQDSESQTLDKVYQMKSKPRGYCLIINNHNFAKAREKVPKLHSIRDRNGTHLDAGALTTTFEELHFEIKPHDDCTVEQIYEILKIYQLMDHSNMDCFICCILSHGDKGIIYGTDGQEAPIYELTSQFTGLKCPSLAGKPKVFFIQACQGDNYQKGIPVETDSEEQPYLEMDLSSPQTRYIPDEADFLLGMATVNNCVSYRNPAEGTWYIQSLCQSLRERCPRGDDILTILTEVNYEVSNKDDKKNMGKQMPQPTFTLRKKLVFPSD

Columns and labels:
[1] = biological target: T1, myelin protein zero (MPZ) tagged with a C-terminal monomeric EGFP (human) (UniProt P25189); test: co-IP; GFP-Trap magnetic agarose beads, lysates of HCT116 24 hr after transfection; 30 mM HEPES pH 7.2, 150 mM NaCl, 1% Triton X-100; 4 hr at 4°C; immunoblot
T1 sequence: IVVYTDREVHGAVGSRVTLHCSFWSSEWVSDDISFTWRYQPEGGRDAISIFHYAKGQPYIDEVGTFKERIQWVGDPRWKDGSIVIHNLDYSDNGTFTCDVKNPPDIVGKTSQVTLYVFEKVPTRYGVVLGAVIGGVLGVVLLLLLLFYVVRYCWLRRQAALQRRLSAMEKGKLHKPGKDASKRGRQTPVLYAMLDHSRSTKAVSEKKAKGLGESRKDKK

[2] = biological target: death receptor 5 (DR5), endogenous (human (endogenous in HCT116)) (UniProt O14763); test: co-IP; immunoprecipitation of DR5 with anti-DR5 mAb 5C7-conjugated agarose beads from lysates of HCT116 transfected with MPZ-GFP or the empty vector; blotted for DR5, MPZ-GFP, FADD

Substance	binding [1]	binding [2]
FADD, endogenous (from UniProt Q13158 1-208)	binds	binds
caspase 8, endogenous (from UniProt Q14790 1-479) (enzyme)	binds	–
